# Data taken from PubChem BioAssay AID504332 (National Center for Advancing Translational Sciences (NCATS), 2011).
# Out of some 350,000 compounds screened, about 31,000 (8.9%) were called active. Inconclusive means that the source gave no clear call. Such entries were picked first, then a sample of the others. The call rests on the fitted dose curve; in most records, active means well fitted inhibition curve with a large enough effect; inconclusive means small, poorly fitted or top-dose-only effect; inactive means no such curve, though single readings can be large or run the other way. Potencies beside an inconclusive call are fits to weak or partial responses and may not hold up.
# Molecular target: Histone-lysine N-methyltransferase EHMT2 (Homo sapiens) (UniProt Q96KQ7)
# Assay: qHTS Assay for Inhibitors of Histone Lysine Methyltransferase G9a; further: nearly all actives have a fitted effect of over 75% in size
# Details: G9a H3K9 monomethylation, AlphaScreen, 2 h; activity, negative = inhibition: at 59 µM (top of the series) unless noted
# Method in brief: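 G9a (20 nM) preincubated 15 min RT with compounds, then 500 nM biotinylated H3K9 peptide and 20 uM SAM added; 2 h RT reaction. Monomethyl-H3K9 product detected by AlphaScreen with anti-H3K9me1 antibody, streptavidin donor and anti-rabbit IgG acceptor beads.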
# On the % scale 0 is the no-effect control and ±100 the full control effect; potency means the concentration at half of the fitted maximal effect; tags describe the fitted curve by direction and shape.
# Sequence of UniProt Q96KQ7 (Q96KQ7 whole entry, looked up): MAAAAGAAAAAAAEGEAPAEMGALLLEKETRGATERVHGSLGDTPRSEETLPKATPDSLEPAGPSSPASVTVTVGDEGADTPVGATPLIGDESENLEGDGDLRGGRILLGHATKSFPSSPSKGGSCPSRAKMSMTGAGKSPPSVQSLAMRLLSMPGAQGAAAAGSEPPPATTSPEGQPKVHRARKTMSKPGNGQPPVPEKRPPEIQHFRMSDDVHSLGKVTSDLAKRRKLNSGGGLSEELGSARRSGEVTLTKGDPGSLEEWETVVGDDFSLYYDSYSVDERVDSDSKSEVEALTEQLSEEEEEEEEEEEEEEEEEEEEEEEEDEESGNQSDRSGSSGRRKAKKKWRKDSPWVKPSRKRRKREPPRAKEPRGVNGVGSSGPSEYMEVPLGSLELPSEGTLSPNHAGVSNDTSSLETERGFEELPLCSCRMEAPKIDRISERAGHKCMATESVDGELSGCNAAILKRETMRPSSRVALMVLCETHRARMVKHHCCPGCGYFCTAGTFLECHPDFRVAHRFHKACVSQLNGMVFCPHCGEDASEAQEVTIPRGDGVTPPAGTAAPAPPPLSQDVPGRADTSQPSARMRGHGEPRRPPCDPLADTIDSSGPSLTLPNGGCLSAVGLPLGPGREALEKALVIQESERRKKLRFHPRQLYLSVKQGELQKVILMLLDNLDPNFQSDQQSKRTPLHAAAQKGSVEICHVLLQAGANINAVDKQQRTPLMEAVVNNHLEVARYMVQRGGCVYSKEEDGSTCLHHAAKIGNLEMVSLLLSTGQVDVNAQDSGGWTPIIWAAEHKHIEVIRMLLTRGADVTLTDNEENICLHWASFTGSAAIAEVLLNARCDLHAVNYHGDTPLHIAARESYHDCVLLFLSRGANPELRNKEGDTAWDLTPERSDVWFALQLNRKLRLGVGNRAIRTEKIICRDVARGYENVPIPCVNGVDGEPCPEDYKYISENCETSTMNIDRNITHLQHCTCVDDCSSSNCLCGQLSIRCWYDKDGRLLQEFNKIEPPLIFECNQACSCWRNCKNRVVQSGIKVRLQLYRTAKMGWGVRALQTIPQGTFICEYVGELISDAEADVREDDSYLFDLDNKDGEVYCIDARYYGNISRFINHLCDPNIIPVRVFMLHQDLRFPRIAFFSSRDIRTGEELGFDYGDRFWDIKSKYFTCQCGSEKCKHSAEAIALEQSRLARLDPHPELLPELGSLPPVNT
SMILES,"activity, negative = inhibition",Potency
Cc1nn(-c2ccccc2)c(C)c1NC(=O)COC(=O)Cc1ccccc1F,inactive: -47.1% [at 0.501 µM],–
O=C(Nc1ccc(S(=O)(=O)Nc2nccs2)cc1)c1cccc(N2C(=O)c3ccccc3C2=O)c1,–,"inconclusive: 100 µM [inhibitor, single point]"
COc1ccc(NC(=O)c2c(C)oc3ccc(O)c(CN4CCC(C)CC4)c23)cc1,–,"inconclusive: 22.4 µM [inhibitor, partial curve, poor fit]"
CCc1nnc(NC(=O)C2CCN(C(=O)c3ccco3)CC2)s1,–,"inconclusive: 79.4 µM [inhibitor, single point]"
COc1cc(C=C(c2nc3ccccc3s2)c2nc3ccccc3s2)ccc1O,–,active: 3.55 µM
CNC(=O)CSc1nc2[nH]ncc2c(=O)[nH]1,–,inactive
COCCNC(=O)C(c1ccc(F)cc1)N(Cc1ccco1)C(=O)CCC(=O)Nc1ccccn1 (stereo unspecified),–,"inconclusive: 79.4 µM [inhibitor, single point]"
CCCCc1nnc(NC(=O)C(=O)OCC)s1,–,"inconclusive: 44.7 µM [inhibitor, single point]"
O=C(CCn1c(=S)[nH]c2ccccc2c1=O)NCCc1ccccc1,–,inactive
Cc1cc(C)nc(NC(=O)c2ccc(Cl)c([N+](=O)[O-])c2)n1,–,"inconclusive: 56.2 µM [inhibitor, partial curve, poor fit]"
CN(C)S(=O)(=O)c1cc(NC(=O)CN2CCNC(=O)C2)ccc1Cl,–,inactive
CCN1CCN(C(c2ccc(F)cc2)c2c(O)cc(C)n(CCOC)c2=O)CC1 (stereo unspecified),–,"inconclusive: 39.8 µM [inhibitor, single point]"
CCOC(=O)c1sc(N/N=C/c2ccccc2)nc1C,–,active: 2 µM
Cc1ccc(CNCc2ccc3c(c2)OCO3)c(C)c1,–,"inconclusive: 89.1 µM [inhibitor, single point]"
CCn1c(=O)c(CCC(=O)NCC2CCCO2)c(C)c2c(C)nn(-c3ccc(C)cc3)c21 (stereo unspecified),–,inactive
O=C(N/N=C/c1ccc(-c2ccccc2[N+](=O)[O-])o1)c1cncc(Br)c1,–,active: 31.6 µM
COc1ccc(C2=NN(C(=O)c3cccs3)C(c3ccc(OC)cc3)C2)cc1 (stereo unspecified),–,inactive
COc1cc2c(cc1/C=C1/NC(=O)N(CC(=O)Nc3ccccc3)C1=O)OCO2,–,inactive
NC(=O)CC(NC(=O)Cc1ccc(Br)cc1)c1ccc(N2CCC(N3CCCC3)CC2)c([N+](=O)[O-])c1 (stereo unspecified),–,"inconclusive: 89.1 µM [inhibitor, single point]"
C[n+]1c(/C=C/c2ccc(O)cc2)ccc2ccccc21,–,active: 17.8 µM
CN(C)c1ccc(CC2C(=O)Nc3ccccc32)cc1 (stereo unspecified),–,active: 3.16 µM
N#CC1=C(N)NC(SCC(=O)c2ccc(Cl)cc2)=C(C#N)C12CCCC2,–,"inconclusive: 39.8 µM [inhibitor, single point]"
c1ccc2c(c1)ccc1nnc(SCc3ccc4c(c3)OCO4)n12,–,"inconclusive: 79.4 µM [inhibitor, single point]"
O=C(O)C1CCN(Cc2ccccn2)CC1,–,active: 25.1 µM

SMILES,"activity, negative = inhibition",Potency
COc1ccc(C2NCCc3c2[nH]c2ccccc32)cc1CN1CCc2cc(OC)c(OC)cc2C1C (stereo unspecified),–,active: 44.7 µM
COC(=O)C1=C(C)N(Cc2ccco2)C(=O)/C1=C\c1ccc([N+](=O)[O-])cc1,–,active: 17.8 µM
CCN(C(=O)CCN1C(=O)/C(=C/c2ccccc2)SC1=S)C1CCS(=O)(=O)C1 (stereo unspecified),–,inactive
COc1cccc(C(=O)NCCS(=O)(=O)N2CCCCC2)c1,–,active: 11.2 µM
CCN(CC)S(=O)(=O)c1ccc(OC)c(NC(=O)COc2ccc3c(C)cc(=O)oc3c2)c1,–,"inconclusive: 20 µM [inhibitor, single point]"
CC1COC(C)(CC(=O)NN2C(=O)c3ccccc3C2=O)O1 (stereo unspecified),–,"inconclusive: 89.1 µM [inhibitor, single point]"
COc1ccc(N2CCC(CNC(=S)Nc3cc(C)cc(C)c3)C2)cc1 (stereo unspecified),–,"inconclusive: 2.51 µM [inhibitor, partial curve, poor fit]"
COc1cc(C2CC(=O)N(c3ccccc3)C3=C2C(=O)OC3)cc(OC)c1OC (stereo unspecified),–,inactive
CCOC(=O)c1c(C)[nH]c(C)c1S(=O)(=O)N1CCCC(C(=O)Nc2ccc(F)cc2F)C1 (stereo unspecified),–,inactive
COc1ccc(N2C(=O)/C(=C\c3ccco3)N=C2SCC(N)=O)cc1Cl,–,"inconclusive: 89.1 µM [inhibitor, single point]"
COc1ccc(OC)c(NC(=O)Cn2c(C)nc3ccccc3c2=O)c1,–,inactive
CCC1CCCCN1C(=O)Cn1c(=O)n(CCC(=O)NCc2ccco2)c(=O)c2sccc21 (stereo unspecified),–,"inconclusive: 89.1 µM [inhibitor, partial curve, poor fit]"
CC(C)(C)C(=O)NC(=S)Nc1sc2c(c1C(N)=O)CCC2,–,active: 5.62 µM
Cc1ccc(-c2cc(C(=O)N3CCN(C(=O)c4ccco4)CC3)no2)cc1,–,"inconclusive: 14.1 µM [inhibitor, partial curve]"
Cn1c(CNc2cccc(Cl)c2)nnc1SCC(=O)OC1CCCCC1,–,"inconclusive: 89.1 µM [inhibitor, single point]"
O=C(/C=C/c1ccccc1Cl)NC(=S)Nc1ccccc1C(=O)NC1CCCCC1,inconclusive: -69.4% [inhibitor],–
S=c1[nH]nc(-c2cc3c(s2)-c2ccccc2CC3)o1,–,"inconclusive: 1.78 µM [inhibitor, full curve, poor fit]"
O=C(O)/C=C/c1cccc(NC(=O)Nc2ccc([N+](=O)[O-])cc2)c1,–,"inconclusive: 89.1 µM [inhibitor, single point]"
O=C(C1CCCCC1)N1CCN(S(=O)(=O)c2ccc(Cl)cc2)CC1,–,inactive
CC(=O)N/N=C(\C)c1ccc(Br)cc1Br,–,"inconclusive: 89.1 µM [inhibitor, partial curve, poor fit]"
COc1ccccc1CNc1ccc(-c2nc(-c3ccncc3)no2)cc1[N+](=O)[O-],–,inactive
Cc1noc(C)c1S(=O)(=O)N1CCC(C(=O)N2CCN(c3ccc(Cl)cc3)CC2)CC1,–,"inconclusive: 1.26 µM [inhibitor, full curve, poor fit]"
CN(Cc1cccs1)C(=O)CN1CCN(S(=O)(=O)c2ccc3c(c2)OCCCO3)CC1,–,active: 44.7 µM
Cc1ccc(C(=O)OCC(=O)Nc2ccc3c(c2)OCO3)o1,–,"inconclusive: 39.8 µM [inhibitor, single point]"

SMILES,"activity, negative = inhibition",Potency
COc1cccc(CC(NC(C)=O)C(=O)NC2CCN(C(=O)c3ccncc3)CC2)c1OC (stereo unspecified),–,inactive
CCOc1cc(C(=O)N2CCc3c([nH]c4ccccc34)C2c2ccccc2)cc(OCC)c1OCC (stereo unspecified),–,inactive
Cc1ccc(N(CC(=O)Nc2ccc(C)c(F)c2)S(=O)(=O)c2c(C)n[nH]c2C)cc1,–,inactive
O=C(Nc1ccc(F)c([N+](=O)[O-])c1)c1ccc2c(c1)C(=O)OC2=O,–,"inconclusive: 89.1 µM [inhibitor, single point]"
N#Cc1c[nH]n2c(NC3CCCC3)c(-c3cccc(Cl)c3)nc12,–,"inconclusive: 35.5 µM [inhibitor, partial curve, poor fit]"
CN(C)CCNc1ncnc2c1sc1nc(N3CCOCC3)c3c(c12)CC(C)(C)SC3,inconclusive: -80.3% [inhibitor],–
CCn1c(SCC(=O)Nc2sc3c(c2C(N)=O)CCC(C)C3)nnc1-c1ccco1 (stereo unspecified),–,active: 35.5 µM
Cc1ccc(C(=O)NNC(=O)Cn2ccc(C(F)(F)F)n2)o1,inactive: -6.55% [at 0.501 µM],–
CC(=O)c1ccc(OCC(O)CN2CCN(S(=O)(=O)c3c(C)cc(C)cc3C)CC2)cc1 (stereo unspecified),–,"inconclusive: 89.1 µM [inhibitor, single point]"
O=C(O)Cn1cc(/C=C2\SC(=O)N(c3ccccc3)C2=O)c2ccccc21,–,"inconclusive: 6.31 µM [inhibitor, single point]"
OC(CN1CCN(c2ccccc2)CC1)Cn1c2ccccc2c2ccccc21 (stereo unspecified),–,active: 31.6 µM
CCc1c(C)sc(NC(=O)/C=C/C(=O)O)c1C(N)=O,–,active: 35.5 µM
CCOc1ccc(/C=C2/Sc3ccc(C(=O)N4CCN(C(=O)c5ccco5)CC4)cc3N(C)C2=O)cc1OC,–,"inconclusive: 20 µM [inhibitor, full curve]"
COc1ccc(C(c2c(O)ccc3ccccc23)N2CCOCC2)c(OC)c1 (stereo unspecified),–,active: 31.6 µM
COCCN(C(=O)CCc1nnc(CCc2c[nH]c3ccccc23)o1)C(C)C,–,"inconclusive: 28.2 µM [inhibitor, partial curve, poor fit]"
O=C(Nc1ccc(N2CCCCC2)cc1)c1cncc(Br)c1,–,active: 79.4 µM
COC(=O)C1=C(C)NC2=C(C(=O)CC(C)(C)C2)C1c1cn(Cc2ccc(Br)cc2)nc1-c1ccccc1 (stereo unspecified),–,"inconclusive: 6.31 µM [inhibitor, single point]"
Cc1[nH]c2ccccc2c1[C@H]1[C@@H](CC#N)C1(C)C,inconclusive: -72.7% [inhibitor],–
Cc1ccc(S(=O)(=O)Oc2ccc(/C=N/N=C3/NC(=O)C(CC(=O)O)S3)cc2)cc1[N+](=O)[O-] (stereo unspecified),–,inactive
CO/N=C/c1ccc(N2CCN(C(=O)c3ccc(Cl)cc3Cl)CC2)c([N+](=O)[O-])c1,–,active: 20 µM
O=C(CCN1CCc2ccccc2C1)Nc1ccccc1,–,"inconclusive: 79.4 µM [inhibitor, single point]"
O=c1ccc(-c2n[nH]c(=S)n2-c2ccc(F)c(Cl)c2)n[nH]1,–,active: 3.16 µM
COc1ccc(N2CCN(C(=O)c3cc(C4CC4)nn3-c3ccccc3)CC2)cc1,–,"inconclusive: 6.31 µM [inhibitor, single point]"
